Experimental data published in patent US20040002425A1, “Triketone derivatives and herbicides” (Idemitsu Kosan Co., Ltd., priority 1998, published 2004).
The name of at least one read-out is uncertain.

What was measured:
[1] = test system: Echinochloa crug-galli; assay: Biological Test 1 (soaking in water/treatment on the 3rd day after transplantation): weed-killing effect on barnyard grass; type: in vivo, Echinochloa crus-galli; conditions: Treatment performed 3 days after transplantation
[2] = test system: Scirups juncoides; assay: Biological Test 1 (soaking in water/treatment on the 3rd day after transplantation): weed-killing effect on Scirups juncoides; type: in vivo, Scirpus juncoides; conditions: Treatment performed 3 days after transplantation
[3] = test system: Echinochloa crug-galli; assay: Biological Test 2 (soaking in water/treatment on the 10th day after transplantation): weed-killing effect on barnyard grass; type: in vivo, Echinochloa crus-galli; conditions: Treatment performed 10 days after transplantation
[4] = test system: Scirups juncoides; assay: Biological Test 2 (soaking in water/treatment on the 10th day after transplantation): weed-killing effect on Scirups juncoides; type: in vivo, Scirpus juncoides; conditions: Treatment performed 10 days after transplantation

Compound	Weed-killing effect, Echinochloa crug-galli ([1]; dose 100 g/ha)	Weed-killing effect, Echinochloa crug-galli ([1]; dose 200 g/ha)	Weed-killing effect, Scirups juncoides ([2]; dose 100 g/ha)	Weed-killing effect, Scirups juncoides ([2]; dose 200 g/ha)	Weed-killing effect, Echinochloa crug-galli ([3]; dose 100 g/ha)	Weed-killing effect, Echinochloa crug-galli ([3]; dose 200 g/ha)	Weed-killing effect, Scirups juncoides ([4]; dose 100 g/ha)	Weed-killing effect, Scirups juncoides ([4]; dose 200 g/ha)
Cc1c(C(=O)C2=C(Cl)CCCC2=O)ccc2c1CCS2(=O)=O [B-47]	4 (70% or more and less than 90%)	5 (90% or more (almost completely withered))	5 (90% or more (almost completely withered))	5 (90% or more (almost completely withered))	3 (40% or more and less than 70%)	4 (70% or more and less than 90%)	5 (90% or more (almost completely withered))	5 (90% or more (almost completely withered))
O=C1CCCC(Sc2ccccc2O)=C1C(=O)c1ccc2c(c1Cl)CCS2(=O)=O [B-48]	4 (70% or more and less than 90%)	4 (70% or more and less than 90%)	4 (70% or more and less than 90%)	5 (90% or more (almost completely withered))	3 (40% or more and less than 70%)	4 (70% or more and less than 90%)	4 (70% or more and less than 90%)	5 (90% or more (almost completely withered))
O=C1CCCC(S(=O)(=O)c2ccccc2O)=C1C(=O)c1ccc2c(c1Cl)CCS2(=O)=O [B-49]	4 (70% or more and less than 90%)	4 (70% or more and less than 90%)	4 (70% or more and less than 90%)	5 (90% or more (almost completely withered))	3 (40% or more and less than 70%)	4 (70% or more and less than 90%)	4 (70% or more and less than 90%)	5 (90% or more (almost completely withered))
COCCOC1=C(C(=O)c2ccc3c(c2Cl)CCS3(=O)=O)C(=O)CCC1 [B-53]	5 (90% or more (almost completely withered))	5 (90% or more (almost completely withered))	5 (90% or more (almost completely withered))	5 (90% or more (almost completely withered))	4 (70% or more and less than 90%)	5 (90% or more (almost completely withered))	5 (90% or more (almost completely withered))	5 (90% or more (almost completely withered))
CO/N=C1\CCS(=O)(=O)c2c(C)cc(C(=O)C3=C(Cl)CCCC3=O)c(C)c21 [B-54]	5 (90% or more (almost completely withered))	5 (90% or more (almost completely withered))	3 (40% or more and less than 70%)	5 (90% or more (almost completely withered))	4 (70% or more and less than 90%)	5 (90% or more (almost completely withered))	2 (20% or more and less than 40%)	5 (90% or more (almost completely withered))
CO/N=C1\CCS(=O)(=O)c2c(C)cc(C(=O)C3=C(N(C)C)CCCC3=O)c(C)c21 [B-55, 4-methoxyimino-5,8-dimethyl-6-(3-dimethylamino-1-oxocyclohexan-2-yl)carbonylthiochroman-1,1-1,1-dioxide]	0 (less than 5% (almost no effect))	1 (5% or more and less than 20%)	0 (less than 5% (almost no effect))	2 (20% or more and less than 40%)	0 (less than 5% (almost no effect))	1 (5% or more and less than 20%)	0 (less than 5% (almost no effect))	2 (20% or more and less than 40%)
CO/N=C1\CCS(=O)(=O)c2c(C)cc(C(=O)C3=C(N(C)OC)CCCC3=O)c(C)c21 [B-57, 4-methoxyimino-5,8-dimethyl-6-[3-(N-methoxymethyl)amino-1-oxocyclohexan-2-yl]carbonylthiochroman-1,1-1,1-dioxide]	5 (90% or more (almost completely withered))	5 (90% or more (almost completely withered))	3 (40% or more and less than 70%)	4 (70% or more and less than 90%)	4 (70% or more and less than 90%)	5 (90% or more (almost completely withered))	2 (20% or more and less than 40%)	3 (40% or more and less than 70%)
